Reference: PubChem BioAssay AID488969 (Vanderbilt High Throughput Screening Facility, 2010)
In all, about 110,000 compounds were measured (“z-score”: median about -0.1, highest 2% from about 2 on). This is one part of the list. Active and inactive are the calls of the source.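 How the source made its calls: active means z-score in the third read window above 3 or below -3; inactive means the rest.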

Each molecule was assayed against Metabotropic glutamate receptor 8 (Rattus norvegicus) (UniProt P70579) (assay: rat mGluR8 modulators via GIRK flux, primary screen, cell-based, thallium flux, HTS (AID 488969)). Conditions: HEK293 rat mGluR8, GIRK (G protein-gated inwardly rectifying potassium channel) thallium flux, FluoZin2; at 10 µM; stronger effect = higher value; submaximal glutamate (EC20) added with thallium.
UniProt P70579, sequence (P70579 whole entry, looked up): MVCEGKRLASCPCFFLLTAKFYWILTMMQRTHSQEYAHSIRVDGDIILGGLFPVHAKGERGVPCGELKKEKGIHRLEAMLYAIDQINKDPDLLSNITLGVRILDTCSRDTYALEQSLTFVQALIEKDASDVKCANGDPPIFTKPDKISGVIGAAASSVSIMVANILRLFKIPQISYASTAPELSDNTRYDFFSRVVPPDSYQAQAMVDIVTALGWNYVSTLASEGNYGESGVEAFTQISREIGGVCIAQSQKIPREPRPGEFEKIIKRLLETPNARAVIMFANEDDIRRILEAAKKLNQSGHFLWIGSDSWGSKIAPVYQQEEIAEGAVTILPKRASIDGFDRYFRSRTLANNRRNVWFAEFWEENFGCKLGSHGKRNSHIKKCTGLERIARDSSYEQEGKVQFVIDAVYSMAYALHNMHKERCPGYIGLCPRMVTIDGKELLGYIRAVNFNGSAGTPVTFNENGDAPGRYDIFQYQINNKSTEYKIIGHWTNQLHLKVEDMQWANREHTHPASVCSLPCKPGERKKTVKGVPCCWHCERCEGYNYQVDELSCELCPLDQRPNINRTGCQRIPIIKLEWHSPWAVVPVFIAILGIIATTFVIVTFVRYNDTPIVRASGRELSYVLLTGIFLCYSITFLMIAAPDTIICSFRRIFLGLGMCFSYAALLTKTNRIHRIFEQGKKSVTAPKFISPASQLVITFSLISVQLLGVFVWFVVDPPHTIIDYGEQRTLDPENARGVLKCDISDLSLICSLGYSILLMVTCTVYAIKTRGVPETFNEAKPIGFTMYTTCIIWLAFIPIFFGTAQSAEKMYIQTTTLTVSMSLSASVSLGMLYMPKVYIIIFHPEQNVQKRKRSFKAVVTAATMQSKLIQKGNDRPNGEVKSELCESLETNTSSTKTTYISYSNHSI

| Structure (SMILES) | z-score |
| --- | --- |
| CCCn1nc(C(=O)OCC(=O)c2ccc3c(c2)NC(=O)CO3)c2ccccc2c1=O | -1.71 |
| CCOC(=O)CSc1ncc(-c2cccc(Cl)c2)cn1 | -0.245 |
| COc1ccc(Nc2cc(=O)oc3ccccc23)cc1 | -0.0667 |
| Nn1c(Cc2cccc3ccccc23)nnc1SCc1c(Cl)cccc1Cl | -0.392 |
| Cc1cc(C(=O)N/N=C/c2cc(Br)ccc2OC(=O)c2ccccc2)n[nH]1 | -0.0383 |
| COc1ccc(OC)c(C(=O)c2ccc(C(=O)c3cc(OC)ccc3OC)cc2)c1 | -0.0682 |
| Cc1nnc(N/N=C/c2cccc(OCc3ccc(Cl)c(Cl)c3)c2)n1N | -0.0567 |
| CCCc1nc2ccccc2c(C(=O)OCC(=O)N2CCc3ccccc32)c1CC | -0.271 |
| COc1ccc(/C=N/n2c(-c3cccs3)n[nH]c2=S)cc1 | 2.46 |
| CCOC(=O)c1sc2nccc(N(C)C)c2c1N=CN(C)C | 0.08 |
| CC(NC(=O)COC(=O)/C=C/c1ccc([N+](=O)[O-])cc1)c1ccccc1 (stereo unspecified) | -0.366 |
| CN1CC(c2ccccc2)C2(SC(=S)N(Cc3ccco3)C2=O)C12C(=O)Nc1ccccc12 (stereo unspecified) | 0.221 |
| COCCNC(=S)N1CCc2cc(OC)c(OC)cc2C1COc1cc(C)cc(C)c1 (stereo unspecified) | -0.0886 |
| N#CC1=C(N)Oc2c(O)cc3ccccc3c2C1c1ccsc1 (stereo unspecified) | -0.153 |
| Cc1sc2nc3ccc(NCc4ccco4)nn3c(=O)c2c1C | -0.285 |
| O=C(CCN1C(=O)COc2ccccc21)N1CCCCC1 | -0.358 |

| Structure (SMILES) | z-score |
| --- | --- |
| O=C(NCC1CCCO1)c1ccc(COCC(F)(F)C(F)F)cc1 (stereo unspecified) | 0.432 |
| COCC(=O)Nc1ccc(C)c(Cl)c1 | -2.21 |
| CC1(C)C2CCC1(C)C(OC(=O)CSc1nc(N)cc(=O)[nH]1)C2 (stereo unspecified) | -0.246 |
| CCn1c2ccccc2c2cc(C3C(C#N)=C(N)Oc4n[nH]c(COC)c43)ccc21 (stereo unspecified) | 0.229 |
| N#Cc1c2n(c(=S)n(-c3ccccn3)c1=O)CCCCC2 | -0.927 |
| CCN(CC)C(=O)Oc1ccc2ccccc2c1Cl | 0.21 |
| COC(=O)c1cc(OC)c(OC)cc1NC(=O)CSc1ccccc1 | -0.473 |
| Clc1ccccc1OCCCCn1ccnc1 | 0.387 |
| CC(=O)c1sc(N/N=C\c2cccc(Br)c2)nc1C | -0.166 |
| COCCn1c(-c2ccccc2)nc2oc3ccccc3c(=O)c2c1=O | -0.0618 |
| COc1ccc(Oc2nc3c(c(=O)n(C)c(=O)n3C)n2Cc2cccc(OC)c2)cc1 | -0.278 |
| Cc1ccc(Cn2nnc3c(=O)n(CC(=O)c4ccccc4)cnc32)cc1 | -0.376 |
| O=C(NC1(C(F)(F)F)C(=O)Nc2c1c(=O)[nH]c(=O)n2Cc1ccccc1)c1ccc(Cl)cc1Cl (stereo unspecified) | -0.114 |
| CC(C(=O)O)c1n[nH]c(=O)c2ccccc12 (stereo unspecified) | -0.0879 |
| COCCN(C(=O)Cc1cccs1)C(C(=O)NCc1ccc(OC)cc1)c1ccccc1 (stereo unspecified) | active: 3.95 |
